Measurements published in PubChem BioAssay AID686978 (National Center for Advancing Translational Sciences (NCATS), 2013).
About 64,000 (15%) of roughly 420,000 compounds were called active. The shares of active, inactive and inconclusive entries below differ from those in the screen. The call rests on the fitted dose curve; in most records, active means well fitted inhibition curve with a large enough effect; inconclusive means small, poorly fitted or top-dose-only effect; inactive means flat fitted curve, though single readings scatter. Potencies of inconclusive entries are left out as doubtful fits.

Test: qHTS for Inhibitors of human tyrosyl-DNA phosphodiesterase 1 (TDP1): qHTS in cells in absence of CPT; further: nearly all actives have a fitted effect of over 55% in size
Details: DT40 Tdp1-/- hTDP1 cells, no CPT, ATP luminescence, 48 h; activity change, negative = growth inhibition: at 46.2 µM (top of the series) unless noted
How it was run: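 DT40 Tdp1-/-;hTDP1 cells, no CPT (DMSO vehicle only), 400 cells/well; compounds pin-transferred; ≥48 hr, 37 °C; CellTiter-Glo 30 min RT dark, luminescence read.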
On the % scale 0 is the no-effect control and ±100 the full control effect; potency means the concentration at half of the fitted maximal effect; tags describe the fitted curve by direction and shape.

Which Potency does the source give for `CC[C@@H]1/C=C(\C)C[C@H](C)C[C@H](OC)[C@H]2O[C@@](O)(C(=O)C(=O)N3CCCC[C@H]3C(=O)O[C@H](/C(C)=C/[C@@H]3CC[C@@H](Cl)[C@H](OC)C3)[C@H](C)[C@@H](O)CC1=O)[C@H](C)C[C@@H]2OC` here?
The Potency was inconclusive [inhibitor, single point].

With `C/C=C(/C)C(=O)OC1Cc2c(ccc3ccc(=O)oc23)OC1(C)C` (stereo unspecified) as the molecule, how does the Potency read?
The Potency was inconclusive [inhibitor, single point].

With `O=C(C[n+]1ccccc1Br)c1ccc(F)cc1` as the molecule, how does the Potency read?
The Potency was inconclusive [inhibitor, single point].

Which Potency does the source give for `CC(CCc1ccccc1)NC(=O)CCc1cn(C)c2ccccc12` (stereo unspecified) here?
The Potency was active: 18.4 µM.

Which “activity change, negative = growth inhibition” value does the source give for `CN(C)c1nc(CN2CCCCC2c2cccnc2)nc2ccccc12` (stereo unspecified) here?
The value was inactive: -0.232%.

For `COC(=O)CCCC[C@@H]1O[C@H](CCc2ccccc2)CC2=C1C(=O)OC(C)(C)O2`, which “activity change, negative = growth inhibition” value is on record?
Its value is inactive: -84.7%.

For `Cc1ccc(C)n1-c1ccc(-c2ccnc(N)n2)cc1`, which Potency is on record?
The Potency was inconclusive [inhibitor, partial curve, poor fit].

For `C=CCNc1nnc(SCC(=O)N2CCCCC2)c2ccccc12`, which “activity change, negative = growth inhibition” value is on record?
The value was inactive: 4.38%.

Which Potency does the source give for `O=C(N1CCOCC1)N1CCN(c2nc(-c3ccccc3)cs2)CC1` here?
Its Potency is inconclusive [inhibitor, partial curve, poor fit].

With `CC(=O)Nc1ccc(NC(=O)c2ncoc2-c2ccco2)cc1` as the molecule, how does the Potency read?
Its Potency is inconclusive [inhibitor, single point].

With `CN(C)S(=O)(=O)c1cccc(NC(=O)CO/N=C(\N)c2ccccc2)c1` as the molecule, how does the Potency read?
The Potency was inconclusive [inhibitor, single point].

Which “activity change, negative = growth inhibition” value does the source give for `CCCCNC(=O)N(O)C1N(/N=C/c2ccccc2O)C(=S)SC1(C)C` (stereo unspecified) here?
Its value is inactive: -22.5%.

Which Potency does the source give for `Cc1ccc(NC(=O)C2CCCN(C(=O)c3ccc(Cl)cc3)C2)cc1S(=O)(=O)N1CCOCC1` (stereo unspecified) here?
The Potency was active: 16.4 µM.

Which Potency does the source give for `Cc1cccc(NS(=O)(=O)c2ccc3[nH]c(=O)cc(C(=O)OC(C)C(=O)Nc4ccc([N+](=O)[O-])cc4)c3c2)c1` (stereo unspecified) here?
The Potency was inconclusive [inhibitor, partial curve].

Which Potency does the source give for `COCCNC(=S)N1CCCN(c2nc3cc(C)ccc3cc2C#N)CC1` here?
The Potency was inconclusive [inhibitor, single point].

Which Potency does the source give for `O=C(COc1ccc(Br)cc1CNC1CCCC1)Nc1ccccc1` here?
Its Potency is active: 18.4 µM.

For `CCCNC(=O)c1nn2c(C(F)(F)F)cc(-c3ccccc3)nc2c1Cl`, which Potency is on record?
Its Potency is inconclusive [inhibitor, single point].

With `CCCCCNC(=O)C1CCC(Cn2c(=O)c3sccc3n(CC)c2=O)CC1` (stereo unspecified) as the molecule, how does the Potency read?
The Potency was inconclusive [inhibitor, single point].

For `Cc1ccc(CN2C(=O)C3(c4ccccc42)N(c2ccc(C)c(Cl)c2)C(=O)CS3(=O)=O)cc1` (stereo unspecified), which Potency is on record?
Its Potency is inconclusive [inhibitor, single point].

For `CN1C(=O)/C(=C/c2ccc(OCc3ccccc3F)cc2)N(C)C1=S`, which “activity change, negative = growth inhibition” value is on record?
The value was inactive: -27.6%.

Which Potency does the source give for `Cc1ccc(OCC(O)Cn2c(N3CCCCC3)nc3c2c(=O)[nH]c(=O)n3C)cc1` (stereo unspecified) here?
Its Potency is inconclusive [inhibitor, partial curve, poor fit].

With `CC1=C(C(=O)OC(C)C)C(c2ccc(Cl)cc2)n2c(sc(=Cc3ccc(OCC(=O)O)cc3)c2=O)=N1` (stereo unspecified) as the molecule, how does the Potency read?
Its Potency is inconclusive [inhibitor, single point].

With `Cc1cc(-c2cccs2)nc(-n2cccc2)n1` as the molecule, how does the “activity change, negative = growth inhibition” value read?
The value was inactive: -17.5%.

Which “activity change, negative = growth inhibition” value does the source give for `Cc1cc([N+](=O)[O-])ccc1NC(=O)c1cncc(Br)c1` here?
Its value is inactive: -16.7%.

Which “activity change, negative = growth inhibition” value does the source give for `CCCCC(=O)Nc1nnnn1CCC` here?
The value was inactive: -12.5%.

With `Cn1cc(-c2ccc3c(c2)OCO3)c2ccccc21` as the molecule, how does the “activity change, negative = growth inhibition” value read?
The value was inactive: 4.51%.

Which Potency does the source give for `Cc1ccc(-c2cnc(C(O)c3cc(F)cc(Cl)c3)[nH]2)cc1` (stereo unspecified) here?
The Potency was inconclusive [inhibitor, single point].

For `COc1ccc(NC(=O)CSc2cn(CCNC(=O)c3ccc(OC)cc3)c3ccccc23)cc1`, which Potency is on record?
Its Potency is active: 25.9 µM.

For `O=C(COc1ncnc2cc([N+](=O)[O-])ccc12)NC(=O)NC1CCCCC1`, which Potency is on record?
The Potency was inconclusive [inhibitor, partial curve].

With `Cc1ccc(C(=O)NC(=S)NNC(=O)c2cccc([N+](=O)[O-])c2)cc1` as the molecule, how does the Potency read?
Its Potency is inconclusive [inhibitor, single point].

For `CCc1nc2sc3c(N4CCCCC4)ncnc3c2c2c1CCCC2`, which “activity change, negative = growth inhibition” value is on record?
Its value is inactive: -4.68%.

For `O=C(Nc1nc(-c2ccccc2)cs1)c1ccc(S(=O)(=O)N2CCc3ccccc32)cc1`, which Potency is on record?
Its Potency is inconclusive [inhibitor, single point].

For `CSc1ccccc1OCc1cc(C(=O)N(C)Cc2cnccn2)no1`, which “activity change, negative = growth inhibition” value is on record?
The value was inactive: 11.1%.

With `CCCCn1c(N)c(N(CCOC)C(=O)c2ccc(-c3ccccc3)cc2)c(=O)[nH]c1=O` as the molecule, how does the “activity change, negative = growth inhibition” value read?
The value was inactive: 2.57%.

For `COc1ccc(-c2ccc(OC)c([C@H]3[C@H]4C=CC[C@@H](C)[C@@H]4C(=O)N3Cc3ccccc3)c2)cc1`, which Potency is on record?
Its Potency is active: 14.6 µM.

For `CCOC(=O)c1c(NC(=O)CSc2nnc(-c3c[nH]c4ccccc34)n2CCOC)sc2c1CCCC2`, which Potency is on record?
Its Potency is active: 14.6 µM.

With `Cc1cc(=O)oc2c(N)nccc12` as the molecule, how does the Potency read?
Its Potency is inconclusive [inhibitor, single point].

For `CC(C)(C)OC(=O)N(Cc1ccccc1)Cc1cccc(OCc2cccc(NC(=O)C3CC3)c2)c1`, which Potency is on record?
Its Potency is inconclusive [inhibitor, single point].

For `COc1cccc(N2CCN(c3nc(C)cc(C)c3C#N)CC2)c1`, which Potency is on record?
Its Potency is inconclusive [inhibitor, single point].

Which Potency does the source give for `Cc1ccc(S(=O)(=O)CC(=O)N2CCN(c3cccc(C(F)(F)F)c3)CC2)cc1` here?
Its Potency is active: 20.6 µM.

Which “activity change, negative = growth inhibition” value does the source give for `Cc1c(C)c2ccc(O)c(CN3CCCC3)c2oc1=O` here?
The value was inactive: 7.65%.

With `O=C(CCC1N=C2c3ccccc3N=C(SCc3cccc(Cl)c3)N2C1=O)NCCc1ccccc1` (stereo unspecified) as the molecule, how does the Potency read?
The Potency was inconclusive [inhibitor, single point].

For `CC12CCC(C(=O)NCc3ccccc3Cl)(OC1=O)C2(C)C` (stereo unspecified), which Potency is on record?
Its Potency is inconclusive [inhibitor, single point].

Which Potency does the source give for `Cc1ccccc1/C=C\c1nc2ccccc2c(=O)[nH]1` here?
Its Potency is active: 16.4 µM.

For `Cc1oc(-c2cccc(Br)c2)nc1Cn1c(SCc2cccc(F)c2)nc2cccnc21`, which Potency is on record?
Its Potency is active: 20.6 µM.

With `S=C(NCCc1ccccc1)Nc1ccc(Cl)cc1` as the molecule, how does the Potency read?
Its Potency is active: 4.61 µM.

With `Cc1c(OC(C)C(=O)NCc2ccncc2)ccc2c3c(c(=O)oc12)CCCC3` (stereo unspecified) as the molecule, how does the Potency read?
The Potency was inconclusive [inhibitor, single point].

With `Cc1ccc(S(=O)(=O)N(C)C)cc1NC(=O)C1CCCCC1` as the molecule, how does the “activity change, negative = growth inhibition” value read?
The value was inactive: -12.6%.

Which Potency does the source give for `CN(C)CCNC(=O)/C(=C/c1ccc(-c2ccc(Cl)cc2Cl)o1)NC(=O)c1ccccc1` here?
The Potency was inconclusive [inhibitor, single point].

Which “activity change, negative = growth inhibition” value does the source give for `O=C1NC[C@H](CCCCN2C[C@H](Cc3ccccc3)N(CCC3CCCCC3)C(=O)C2=O)N(CC2CCCCC2)C1=O` here?
The value was inactive: 4.91%.

With `CCC1NC(=O)c2cc3ccccc3cc2-n2c1nc1cc(F)ccc1c2=O` (stereo unspecified) as the molecule, how does the Potency read?
Its Potency is inconclusive [inhibitor, single point].

With `CCOC(=O)CSc1cccc2cccnc12` as the molecule, how does the Potency read?
Its Potency is active: 5.8 µM.

For `c1ccc(Oc2nc(-c3ccccn3)nc3ccccc23)cc1`, which Potency is on record?
Its Potency is active: 2.06 µM.

Which Potency does the source give for `COc1ccc(-c2cc(C(=O)N3CCCCCC3)c3ccccc3n2)cc1OC` here?
The Potency was inconclusive [inhibitor, single point].

With `CCCCc1ccc(NS(=O)(=O)c2cccc(C(=O)N3CCNC(=O)C3)c2)cc1` as the molecule, how does the Potency read?
The Potency was inconclusive [inhibitor, single point].

With `CC1=C(C(=O)OC2CCCCC2)C(c2ccccc2)NC(=O)N1` (stereo unspecified) as the molecule, how does the Potency read?
The Potency was inconclusive [inhibitor, single point].

For `Cc1cc(Cl)ccc1C(O)c1ncc(-c2cccc(C(F)(F)F)c2)[nH]1` (stereo unspecified), which Potency is on record?
Its Potency is inconclusive [inhibitor, single point].

With `CCN(CC(=O)NCc1ccc(F)cc1)C(=O)/C=C/c1ccc(OC)cc1` as the molecule, how does the Potency read?
Its Potency is inconclusive [inhibitor, single point].

Which “activity change, negative = growth inhibition” value does the source give for `CCSc1nc2c(c(=O)[nH]1)C(c1cccnc1)C(C(=O)OC(C)C)=C(C)N2` (stereo unspecified) here?
Its value is inactive: -29%.

With `COc1ccc(Br)cc1CNC(=O)CSc1n[nH]c(-c2ccccc2)n1` as the molecule, how does the Potency read?
The Potency was active: 20.6 µM.

For `CCc1nc(SCC(=O)NCc2ccccc2)c2c(=O)n(C)c(=O)n(C)c2n1`, which Potency is on record?
Its Potency is inconclusive [inhibitor, partial curve].

For `Cc1cccc(NC(=O)Cn2cnc3ccc(S(=O)(=O)N4CCC(C)CC4)cc3c2=O)n1`, which “activity change, negative = growth inhibition” value is on record?
The value was inactive: -7.57%.

For `Cc1cc(Nc2ccccc2)n2nc(C)c(-c3ccccc3)c2n1`, which Potency is on record?
The Potency was inconclusive [inhibitor, single point].

With `CCC(Nc1ccc(OC)cc1)C(=O)N/N=C/c1ccc([N+](=O)[O-])cc1` (stereo unspecified) as the molecule, how does the Potency read?
The Potency was inconclusive [inhibitor, single point].

Which Potency does the source give for `CCc1ccn2cc(-c3cc(-c4ccccc4)no3)nc2c1` here?
Its Potency is active: 18.4 µM.

With `CCN(CC)C(=O)C1=C(C)N(CCCOC)C(=O)C(CC(=O)NCCCN(C)C)C1` (stereo unspecified) as the molecule, how does the “activity change, negative = growth inhibition” value read?
Its value is inactive: 5.91%.

With `CC(=NNC(=O)c1ccc2nc[nH]c2c1)c1ccc(Br)cc1` as the molecule, how does the “activity change, negative = growth inhibition” value read?
Its value is inactive: -25.5%.

Which Potency does the source give for `CC1=C(C(=O)Nc2ccccc2)C(c2ccc(O)cc2)n2nc(-c3ccc(Cl)cc3)nc2N1` (stereo unspecified) here?
The Potency was inconclusive [inhibitor, single point].

With `CCCS(=O)(=O)N1CCC(Cc2ccc(OC)cc2)(C(=O)OCC)CC1` as the molecule, how does the Potency read?
The Potency was inconclusive [inhibitor, single point].

Which Potency does the source give for `Oc1c(CN2CCCCC2)cc(COCc2ccccc2)c2cccnc12` here?
Its Potency is active: 4.61 µM.

With `O=C(NCCCNC(=O)c1ccc(Cl)cc1Cl)c1ccco1` as the molecule, how does the “activity change, negative = growth inhibition” value read?
Its value is inactive: -12.8%.
